Test results as given in a compilation of properties of binary mixtures (doi:10.1016/j.molliq.2022.119221).
The densities may have been worked out from excess volumes.

Assay: xn = mol fraction of the nth substance listed
Details: 100 kPa

**Q.** For OCCO + CCCC[n+]1ccn(C)c1.O=S(=O)([N-]S(=O)(=O)C(F)(F)F)C(F)(F)F, which mass density (293.15 K, x2 = 0.1) is on record?
**A.** Its mass density is 1237.3 kg/m3.

**Q.** What about the mass density (293.15 K, x2 = 0.2997) of the same compound?
**A.** Its mass density is 1347.9 kg/m3.

**Q.** And the mass density (293.15 K, x2 = 0.4993)?
**A.** Its mass density is 1392.5 kg/m3.

**Q.** And the mass density (293.15 K, x2 = 0.6007)?
**A.** Its mass density is 1405.5 kg/m3.

**Q.** What about the mass density (293.15 K, x2 = 0.7003) of the same compound?
**A.** The mass density was 1412.9 kg/m3.

**Q.** What about the mass density (293.15 K, x2 = 0.7993) of the same compound?
**A.** Its mass density is 1421 kg/m3.

**Q.** And the mass density (293.15 K, x2 = 0.9)?
**A.** Its mass density is 1431 kg/m3.

**Q.** And the mass density (298.15 K, x2 = 0.1)?
**A.** The mass density was 1233.1 kg/m3.

**Q.** And the mass density (298.15 K, x2 = 0.2997)?
**A.** The mass density was 1343 kg/m3.

**Q.** And the mass density (298.15 K, x2 = 0.4015)?
**A.** Its mass density is 1370.9 kg/m3.

**Q.** What about the mass density (298.15 K, x2 = 0.4993) of the same compound?
**A.** Its mass density is 1387.6 kg/m3.

**Q.** And the mass density (298.15 K, x2 = 0.6007)?
**A.** Its mass density is 1400.5 kg/m3.

**Q.** And the mass density (298.15 K, x2 = 0.7003)?
**A.** The mass density was 1408 kg/m3.

**Q.** And the mass density (298.15 K, x2 = 0.7993)?
**A.** The mass density was 1416 kg/m3.

**Q.** What about the mass density (298.15 K, x2 = 0.9) of the same compound?
**A.** Its mass density is 1426.2 kg/m3.

**Q.** And the mass density (303.15 K, x2 = 0.1)?
**A.** Its mass density is 1229.3 kg/m3.

**Q.** What about the mass density (303.15 K, x2 = 0.2002) of the same compound?
**A.** Its mass density is 1300 kg/m3.

**Q.** What about the mass density (303.15 K, x2 = 0.2997) of the same compound?
**A.** Its mass density is 1338.1 kg/m3.

**Q.** And the mass density (303.15 K, x2 = 0.4015)?
**A.** The mass density was 1365.9 kg/m3.

**Q.** What about the mass density (303.15 K, x2 = 0.4993) of the same compound?
**A.** The mass density was 1382.7 kg/m3.

**Q.** What about the mass density (303.15 K, x2 = 0.6007) of the same compound?
**A.** Its mass density is 1395.8 kg/m3.

**Q.** And the mass density (303.15 K, x2 = 0.7003)?
**A.** Its mass density is 1403.1 kg/m3.

**Q.** What about the mass density (303.15 K, x2 = 0.7993) of the same compound?
**A.** Its mass density is 1411.1 kg/m3.

**Q.** What about the mass density (303.15 K, x2 = 0.9) of the same compound?
**A.** The mass density was 1421.4 kg/m3.

**Q.** And the mass density (308.15 K, x2 = 0.1)?
**A.** The mass density was 1224.3 kg/m3.

**Q.** And the mass density (308.15 K, x2 = 0.2002)?
**A.** The mass density was 1294.8 kg/m3.

**Q.** What about the mass density (308.15 K, x2 = 0.4015) of the same compound?
**A.** Its mass density is 1361.1 kg/m3.

**Q.** And the mass density (308.15 K, x2 = 0.4993)?
**A.** The mass density was 1377.8 kg/m3.

**Q.** What about the mass density (308.15 K, x2 = 0.6007) of the same compound?
**A.** Its mass density is 1391 kg/m3.

**Q.** And the mass density (308.15 K, x2 = 0.7993)?
**A.** Its mass density is 1406.6 kg/m3.

**Q.** And the mass density (308.15 K, x2 = 0.9)?
**A.** Its mass density is 1416.6 kg/m3.

**Q.** What about the mass density (313.15 K, x2 = 0.1) of the same compound?
**A.** The mass density was 1219.6 kg/m3.

**Q.** What about the mass density (313.15 K, x2 = 0.2002) of the same compound?
**A.** Its mass density is 1289.8 kg/m3.

**Q.** And the mass density (313.15 K, x2 = 0.4015)?
**A.** Its mass density is 1356.3 kg/m3.

**Q.** What about the mass density (313.15 K, x2 = 0.4993) of the same compound?
**A.** The mass density was 1373.1 kg/m3.

**Q.** What about the mass density (313.15 K, x2 = 0.6007) of the same compound?
**A.** The mass density was 1386.2 kg/m3.

**Q.** And the mass density (313.15 K, x2 = 0.7003)?
**A.** Its mass density is 1393.3 kg/m3.

**Q.** And the mass density (313.15 K, x2 = 0.7993)?
**A.** The mass density was 1401.8 kg/m3.

**Q.** And the mass density (313.15 K, x2 = 0.9)?
**A.** The mass density was 1411.4 kg/m3.

**Q.** What about the mass density (318.15 K, x2 = 0.1) of the same compound?
**A.** The mass density was 1215.8 kg/m3.

**Q.** What about the mass density (318.15 K, x2 = 0.2002) of the same compound?
**A.** Its mass density is 1284.9 kg/m3.

**Q.** And the mass density (318.15 K, x2 = 0.4015)?
**A.** Its mass density is 1351.4 kg/m3.

**Q.** What about the mass density (318.15 K, x2 = 0.4993) of the same compound?
**A.** The mass density was 1368.3 kg/m3.

**Q.** And the mass density (318.15 K, x2 = 0.6007)?
**A.** The mass density was 1381.5 kg/m3.

**Q.** What about the mass density (318.15 K, x2 = 0.7993) of the same compound?
**A.** The mass density was 1396.7 kg/m3.

**Q.** What about the mass density (318.15 K, x2 = 0.9) of the same compound?
**A.** Its mass density is 1407 kg/m3.

**Q.** What about the mass density (323.15 K, x2 = 0.1) of the same compound?
**A.** Its mass density is 1212.1 kg/m3.

**Q.** And the mass density (323.15 K, x2 = 0.2002)?
**A.** Its mass density is 1279.8 kg/m3.

**Q.** And the mass density (323.15 K, x2 = 0.4015)?
**A.** Its mass density is 1347.4 kg/m3.

**Q.** What about the mass density (323.15 K, x2 = 0.4993) of the same compound?
**A.** Its mass density is 1363.8 kg/m3.

**Q.** What about the mass density (323.15 K, x2 = 0.6007) of the same compound?
**A.** Its mass density is 1376.8 kg/m3.

**Q.** And the mass density (323.15 K, x2 = 0.7003)?
**A.** Its mass density is 1383.8 kg/m3.

**Q.** What about the mass density (328.15 K, x2 = 0.1) of the same compound?
**A.** Its mass density is 1208.2 kg/m3.

**Q.** And the mass density (328.15 K, x2 = 0.2002)?
**A.** The mass density was 1274.8 kg/m3.

**Q.** And the mass density (328.15 K, x2 = 0.2997)?
**A.** The mass density was 1313.1 kg/m3.

**Q.** And the mass density (328.15 K, x2 = 0.4993)?
**A.** The mass density was 1360.1 kg/m3.

**Q.** And the mass density (328.15 K, x2 = 0.7003)?
**A.** Its mass density is 1379.1 kg/m3.

**Q.** What about the mass density (328.15 K, x2 = 0.7993) of the same compound?
**A.** Its mass density is 1387.3 kg/m3.

**Q.** And the mass density (333.15 K, x2 = 0.1)?
**A.** The mass density was 1204.6 kg/m3.

**Q.** What about the mass density (333.15 K, x2 = 0.2997) of the same compound?
**A.** Its mass density is 1309.1 kg/m3.

**Q.** What about the mass density (333.15 K, x2 = 0.4015) of the same compound?
**A.** Its mass density is 1337.9 kg/m3.

**Q.** And the mass density (333.15 K, x2 = 0.4993)?
**A.** Its mass density is 1356.1 kg/m3.

**Q.** And the mass density (333.15 K, x2 = 0.6007)?
**A.** The mass density was 1368 kg/m3.

**Q.** What about the mass density (333.15 K, x2 = 0.7003) of the same compound?
**A.** Its mass density is 1374.5 kg/m3.

**Q.** What about the mass density (333.15 K, x2 = 0.9) of the same compound?
**A.** The mass density was 1392.6 kg/m3.

**Q.** And the mass density (338.15 K, x2 = 0.1)?
**A.** The mass density was 1199.1 kg/m3.

**Q.** What about the mass density (338.15 K, x2 = 0.2002) of the same compound?
**A.** Its mass density is 1264.2 kg/m3.

**Q.** And the mass density (338.15 K, x2 = 0.2997)?
**A.** Its mass density is 1304.9 kg/m3.

**Q.** What about the mass density (338.15 K, x2 = 0.4015) of the same compound?
**A.** Its mass density is 1333.3 kg/m3.

**Q.** And the mass density (338.15 K, x2 = 0.4993)?
**A.** Its mass density is 1351.6 kg/m3.

**Q.** What about the mass density (338.15 K, x2 = 0.6007) of the same compound?
**A.** Its mass density is 1364.1 kg/m3.

**Q.** What about the mass density (338.15 K, x2 = 0.7003) of the same compound?
**A.** Its mass density is 1370 kg/m3.

**Q.** What about the mass density (338.15 K, x2 = 0.9) of the same compound?
**A.** Its mass density is 1387.7 kg/m3.
